Test results reported in publication PMC4336329 (PLoS ONE, 2015).
The whole screen tested about 310,000 compounds, of which about 14,000 (4.5%) showed an effect of 50% or more. The effect is printed as a negative number. This is one part of the list.

Target: human ether-à-go-go-related gene (hERG) potassium channel (human, UniProt Q12809)
Assay: primary screen, population patch clamp on CHO cells stably expressing hERG
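Further: peak tail current of the secondary pulse compared with the same well before compound.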

Sequence of human ether-à-go-go-related gene (hERG) potassium channel (Q12809 whole entry, looked up): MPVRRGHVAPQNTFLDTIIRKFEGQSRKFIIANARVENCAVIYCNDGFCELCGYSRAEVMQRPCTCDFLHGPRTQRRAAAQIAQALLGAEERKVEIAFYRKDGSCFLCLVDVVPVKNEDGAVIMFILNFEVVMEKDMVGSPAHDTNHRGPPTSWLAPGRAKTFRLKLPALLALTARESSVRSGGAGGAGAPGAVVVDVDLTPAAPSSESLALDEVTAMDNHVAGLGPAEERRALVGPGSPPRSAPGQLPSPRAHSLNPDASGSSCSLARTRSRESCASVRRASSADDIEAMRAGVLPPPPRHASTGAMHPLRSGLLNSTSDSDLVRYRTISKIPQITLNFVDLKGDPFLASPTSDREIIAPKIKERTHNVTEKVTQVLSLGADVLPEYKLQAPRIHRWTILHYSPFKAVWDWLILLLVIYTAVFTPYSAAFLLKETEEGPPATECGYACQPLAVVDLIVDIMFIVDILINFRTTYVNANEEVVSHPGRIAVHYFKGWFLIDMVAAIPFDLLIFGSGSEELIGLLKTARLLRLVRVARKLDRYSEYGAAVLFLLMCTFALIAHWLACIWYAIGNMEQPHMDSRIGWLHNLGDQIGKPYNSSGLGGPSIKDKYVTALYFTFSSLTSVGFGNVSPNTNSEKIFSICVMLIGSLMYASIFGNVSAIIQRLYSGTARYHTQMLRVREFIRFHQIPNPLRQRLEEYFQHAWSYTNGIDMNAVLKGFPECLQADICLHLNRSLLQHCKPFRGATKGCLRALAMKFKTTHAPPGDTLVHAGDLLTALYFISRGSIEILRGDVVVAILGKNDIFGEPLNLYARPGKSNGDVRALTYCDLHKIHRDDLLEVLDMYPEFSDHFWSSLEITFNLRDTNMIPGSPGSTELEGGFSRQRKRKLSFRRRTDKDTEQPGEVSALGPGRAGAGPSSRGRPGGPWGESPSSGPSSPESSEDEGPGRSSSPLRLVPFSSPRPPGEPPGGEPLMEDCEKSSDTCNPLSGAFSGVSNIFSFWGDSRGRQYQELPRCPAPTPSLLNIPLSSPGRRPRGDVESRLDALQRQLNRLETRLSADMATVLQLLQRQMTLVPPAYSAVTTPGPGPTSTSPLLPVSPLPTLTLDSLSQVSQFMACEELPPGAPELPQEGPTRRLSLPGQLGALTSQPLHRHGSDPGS

| Compound | hERG current change (%, negative = inhibition) at 10uM |
| --- | --- |
| COC(CNC(=O)CNC(=S)N(Cc1ccccc1)Cc1cccs1)OC | -7.85% |
| O=C(/C=C/c1c(Cl)cccc1Cl)NCc1ccco1 | 19.9% |
| CCOc1cccc(/C=C2/NC(=O)N(CC(=O)Nc3cccc(C)c3)C2=O)c1O | 15.1% |
| Cc1cc(C(=O)C(C)Sc2cccc[n+]2[O-])c(C)n1-c1ccc(Cl)cc1 (stereo not drawn) | -12.8% |
| CN(C)C(=O)COc1ncnc2scc(-c3ccc(F)cc3)c12 | 6.68% |
| CN(C)S(=O)(=O)n1cc(/C=C(\NC(=O)c2ccccc2Cl)C(=O)N2CCCC2)c2ccccc21 | -1.67% |
| COCCn1c(SCC(=O)Nc2sccc2C(N)=O)nc2cc(Cl)ccc2c1=O | -14.6% |
| CCOc1cc2c(cc1OCC)C(C(=O)O)C(c1cc(OC)c(OC)c(OC)c1)N(C)C2=O (stereo not drawn) | 3.02% |
| CC(=O)Nc1ccc(OCCF)cc1 | 11.8% |
| Clc1ccc(CSc2nnc3ccccn23)c(Cl)c1 | -25.1% |
| O=C(Nc1ccc(Cl)cc1)C1CCN(C(=O)c2ccco2)CC1 | -49% |
| CN1N=C(C(=O)Nc2ccc3c(c2)CCC3)CCC1=O | 27.6% |
| O=C(c1cccc2ccccc12)N1CCN=C1SCc1ccc([N+](=O)[O-])cc1 | -10.7% |
| COc1ccc(N(Cc2cc3ccccc3[nH]c2=O)S(=O)(=O)c2ccc(OC)cc2)cc1 | 2.82% |
| CC(Sc1nc2c(c(=O)n(C)c(=O)n2C)n1Cc1cc2c(cc1Cl)OCO2)C(=O)O (stereo not drawn) | 25.7% |
| Cc1ccccc1OCc1nnc(SCc2cc(=O)[nH]c3ccccc23)n1-c1ccccc1 | -7.1% |
| CC(=O)NC(Cc1ccc(N(CCCl)CCCl)cc1)C(=O)NC(C(=O)O)C(C)C (stereo not drawn) | 25% |
| COC(=O)/C=C/c1c(C)nc(NCc2ccccc2)nc1Cl | 12.3% |
| COCCN(C(=O)COc1ccc(Cl)cc1)c1nnc(-c2cccnc2)s1.Cl | -6.48% |
| COc1cc(C(=O)NCc2nnc(SCC(=O)NCCc3ccccc3)o2)cc(OC)c1OC | 18% |
| CCN1C(=O)CC(N2CCOCC2)C1=O (stereo not drawn) | 13.7% |
| COc1ccccc1NC(=O)CSc1nnc(COc2ccc(Cl)cc2)n1Cc1ccco1 | -12.7% |

| Compound | hERG current change (%, negative = inhibition) at 10uM |
| --- | --- |
| COc1cc(NC(=O)C2CCCN(c3ncccn3)C2)cc(OC)c1 (stereo not drawn) | 0.686% |
| CC(=O)NC(CC(=O)NCCN1C(=O)S/C(=C\c2ccccc2)C1=O)c1ccccc1 (stereo not drawn) | -15.7% |
| COc1ccc(CN2CCc3c([nH]c4ccccc34)C2)c(OC)c1C | -62.4% |
| O=C(c1nc2ccc(Cl)cn2c1CNCCn1ccnc1)N1CCCCCCC1 | -1.72% |
| Cc1cccc(C(=O)Oc2cc(C)[nH]c(=O)c2[N+](=O)[O-])c1 | 16.7% |
| COc1ccccc1-c1cn(S(=O)(=O)c2ccc(F)cc2)nc1N | -4.89% |
| CC(c1ccccc1)C1CC(=O)N(c2ccccc2)C1=O (stereo not drawn) | 1.02% |
| COc1ccc(NC(=O)CSCc2cc(=O)n3c(C)csc3n2)cc1 | 19.1% |
| CCOc1ccc(S(=O)(=O)NCCCN2CCOCC2)cc1 | 5.84% |
| CCN(CC)S(=O)(=O)c1cccc(NC(=O)COC(=O)c2cc(C)oc2C)c1 | -18.3% |
| COc1ccc(CNC(=O)CN(Cc2ccc(F)cc2)C(=O)CCC(=O)Nc2nccs2)cc1 | -41.7% |
| COc1cccc(CNc2ccc3c(c2)CCC3)c1 | 6.64% |
| CCc1ccc(OCC(=O)N/N=C/c2ccc(OS(=O)(=O)c3ccc(C)cc3)c(OC)c2)cc1 | 22.4% |
| O=C1CC(c2ccco2)CC2=C1C(c1ccccc1)n1nc(C(F)(F)F)nc1N2 (stereo not drawn) | -3.36% |
| CC[C@H](C)[C@@H](NC(=O)O[C@@H]1C(=O)c2cc(Br)ccc2O[C@H]1c1cccc(OC)c1)C(=O)OC | 2.05% |
| CC1CCN(S(=O)(=O)c2ccc(S(=O)(=O)NCC(=O)C(C)(C)C)cc2)CC1 | 5.25% |
| COc1cc2c(cc1NC(=O)CN(C)Cc1cccc(OC)c1OC)oc1ccccc12 | 15.1% |
| CCOC(=O)c1ccc(NS(=O)(=O)c2c(C)[nH]c(C)c2C(=O)N2CCCCC2)cc1 | 7.73% |
| COc1ccccc1CCn1c(N)cc(=O)[nH]c1=O | 18.4% |
| C/C(=N\NC(=O)c1c(C)nc2ccccn12)c1ccc(N2CCOCC2)cc1 | -7.51% |
| Cc1nn(-c2ccc(F)cc2F)c(=O)c2noc(C)c12 | 14.5% |
| CCN(C(=O)CCC(=O)N(CC)c1ccccc1)c1ccccc1 | 6.19% |

| Compound | hERG current change (%, negative = inhibition) at 10uM |
| --- | --- |
| Cc1ccc(NC(=O)CN2C(=O)S/C(=C\c3cc(C)n(-c4cccc(C(=O)O)c4)c3C)C2=O)cc1 | 8.66% |
| O=C(Nc1ccc(Cl)cc1C(F)(F)F)c1ccc(Cl)cc1 | 11.6% |
| Cc1ccc(OCc2nc3ccccc3[nH]2)cc1 | -9.02% |
| NS(=O)(=O)c1ccc(CCNC(=O)CSc2nc3ccsc3c(=O)n2CCCCCC(=O)O)cc1 | 30.8% |
| Cc1ccc(S(=O)(=O)N(CC(=O)N2CCCCCC2)c2ccccc2F)cc1 | -19.4% |
| COc1ccccc1NC(=O)C1CCCN1C(=O)NCc1ccccc1 (stereo not drawn) | 6.94% |
| Cn1cc(CN2CCCC(C(=O)c3ccc(-c4ccccc4)c(F)c3)C2)cn1 (stereo not drawn) | -55.4% |
| Cc1ccc(C(=O)N2CC(=O)NC(=O)C2)cc1 | -4.59% |
| O=C(Nc1nc2c(c(=O)[nH]1)CCCC2)C1CC1 | 7.44% |
| O=S(=O)(Nc1ccc(-c2nc3cccnc3s2)cc1)c1cc(F)ccc1F | 7.54% |
| CC(C)OC(=O)c1cccc(-c2ccc(C=O)o2)c1 | 3.87% |
| CCN1C(=O)CC(N2CCN(CC(=O)NC(C)C)CC2)C1=O (stereo not drawn) | 14% |
| Cc1ccc2nc(/C(C#N)=C\c3cc(O)ccc3[N+](=O)[O-])[nH]c2c1 | 38.4% |
| Cc1cc(NC(=O)c2ccc3nc(-c4ccccc4)c(-c4ccccc4)nc3c2)no1 | 6.59% |
| COc1ccc(C(=O)NCc2nnc(SCC(=O)N3CCCCCC3)o2)cc1OC | 16.7% |
| NNC(=S)Nc1cccc(Cl)c1 | 4.69% |
| O=C(COC(=O)c1cc2ccccc2oc1=O)Nc1cccc(S(=O)(=O)N2CCCCCC2)c1 | 11.8% |
| O=C(COC(=O)CCN1C(=O)/C(=C\C=C\c2ccccc2)SC1=S)Nc1cc(F)ccc1F | 0.14% |
| Cn1nnc2cc(C(=O)N3CCN(c4ccccn4)CC3)ccc21 | 4.53% |
| CN(CC(=O)NCc1ccc2c(c1)OCO2)S(=O)(=O)c1ccc(Br)s1 | -13.1% |
| O=C(c1cc(COc2c(F)cccc2F)on1)N1CCC(c2ccncc2)CC1 | -38.5% |
| COC(=O)Nc1sc2c(c1C(N)=O)CCC(C)C2 (stereo not drawn) | 0.967% |

| Compound | hERG current change (%, negative = inhibition) at 10uM |
| --- | --- |
| CCN(CC(=O)Nc1c(F)cccc1F)C(=O)CCCNC(=O)c1ccc(Cl)cc1 | -7.06% |
| O=C(CSc1ccc(-c2ccccc2)nn1)NCc1ccco1 | -6.45% |
| CCn1c(SCC(=O)NC2CC2)nnc1-c1ccccc1OC | 12.5% |
| Nc1nnc(CC(=O)NCc2ccccc2)s1 | 4.01% |
| COc1ccc(-c2[nH]ncc2CN2CCSCC2)c(OC)c1 | 14.7% |
| COc1cc(/C=N/NC(=O)c2ccoc2C)cc(OC)c1O | -5.45% |
| N#C/C(=C\c1cn(Cc2ccc(F)cc2)c2ccccc12)C(=O)NCc1ccco1 | 9.05% |
| COCC1CCN(C(=O)c2cc(COc3ccc4c(c3)CCCC4)on2)C1 (stereo not drawn) | -24.9% |
| Cc1cc(C(=S)N2CCOCC2)c(C)n1-c1ccc(Cl)cc1 | -3.57% |
| CCCCN(C(=O)C(C)Oc1ccc(Br)cc1)c1c(N)n(Cc2ccccc2)c(=O)[nH]c1=O (stereo not drawn) | -19.5% |
| Cc1ccc2cccc(SCC(=O)N3CCOCC3)c2n1 | 9.37% |
| COc1ccc(C=C2C(=O)N(C)C(=O)N(C)C2=O)cc1CSc1ccccn1 | -9.43% |
| O=C(CNC(=O)c1ccccc1)OCc1cccc([N+](=O)[O-])c1 | -12.7% |
| COc1ccc(C(=O)/C=C/Nc2c(C)n(C)n(-c3ccccc3)c2=O)cc1OC | -12% |
| C#CCNc1cc(-c2ccccc2)nc2ncnn12 | -7.98% |
| O=C(Nc1ccc(F)cc1)OC1CN2CCC1CC2 (stereo not drawn) | -27.5% |
| CCCNC(=O)CSc1n[nH]c(=O)n1CCc1ccccc1 | 39.8% |
| Cc1ccc2occ(/C=C/C(=O)c3ccccc3O)c(=O)c2c1 | -6.8% |
| CCOc1cc(/C=N/OC(C)=O)ccc1OCc1ccccc1 | 2.83% |
| CCC(CC)COC(=O)C1=C(C)NC(=O)NC1c1ccc(OC)cc1 (stereo not drawn) | 6.28% |
| CN1C(=O)c2ccc(C(=O)Nc3ccc4c(c3)OCO4)cc2C1=O | 14.1% |
